About 65 (0.1%) of roughly 45,000 compounds were called active. Calls follow the shape of the dose curve; as a rule, active = well fitted activation curve with a large enough effect; inconclusive = small, poorly fitted or top-dose-only effect; inactive = no such curve, though single readings can be large or run the other way. This is one part of the list.

The target in this experiment is Galactocerebrosidase (Homo sapiens) (UniProt P54803). Put plainly: A Novel Cell-Based Assay to Identify Small Molecules for B -Galactocerebrosidase. Also: 0% is about no effect; nearly all actives have a fitted effect of over 65% in size. Particulars: 145M-Twi-hGALC-G270D cells (Twitcher mouse brain line with human GALC G270D), HMU-beta-Gal fluorescence, 48 h; series mostly up to 57.5 µM; activation: at the top concentration. In outline: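 Mutant human GALC (G270D), stably expressed in a Twitcher mouse brain cell line lacking endogenous GALC, is measured in live-treated cells via 6-hexadecanoylamino-4-methylumbelliferyl-β-galactoside hydrolysis (0.1 mM final, pH 5.2) with fluorescent detection.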
UniProt P54803, sequence (P54803 whole entry, looked up): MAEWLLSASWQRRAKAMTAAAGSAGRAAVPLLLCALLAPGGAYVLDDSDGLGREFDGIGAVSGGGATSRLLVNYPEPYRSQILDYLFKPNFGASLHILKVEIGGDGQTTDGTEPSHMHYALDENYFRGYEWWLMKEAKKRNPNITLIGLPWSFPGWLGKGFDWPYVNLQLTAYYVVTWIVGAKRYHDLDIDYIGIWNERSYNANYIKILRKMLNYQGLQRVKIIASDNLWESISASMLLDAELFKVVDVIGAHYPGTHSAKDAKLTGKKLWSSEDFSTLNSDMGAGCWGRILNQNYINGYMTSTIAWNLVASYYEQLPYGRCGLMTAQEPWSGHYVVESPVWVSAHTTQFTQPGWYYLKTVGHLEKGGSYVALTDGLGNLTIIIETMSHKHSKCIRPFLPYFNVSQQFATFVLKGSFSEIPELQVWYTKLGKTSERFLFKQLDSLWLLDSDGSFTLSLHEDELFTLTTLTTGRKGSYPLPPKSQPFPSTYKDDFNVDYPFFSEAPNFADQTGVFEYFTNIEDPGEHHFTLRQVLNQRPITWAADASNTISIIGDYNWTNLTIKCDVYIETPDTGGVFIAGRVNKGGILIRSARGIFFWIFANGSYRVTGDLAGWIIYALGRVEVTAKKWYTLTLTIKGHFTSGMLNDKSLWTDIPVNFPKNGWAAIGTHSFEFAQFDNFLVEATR
On to `CCOc1cc(C2C(C(=O)OC)=C(C)NC3=C2C(=O)c2ccccc23)c(Br)cc1OC` (configuration not stated), for which the “activation” value was inactive: -7.85%.

`O=C(COc1ccccc1Cl)Nc1nc2c(s1)CCCC2`: the “activation” value is inactive: -2.14%.

Regarding `CCCCN(CCCNC(=O)CN1N=C(c2ccccc2)CCC1=O)c1ccccc1`, the “activation” value is inactive: -3.47%.

Consider `N#C/C(=C\c1ccc(-c2ccccc2C(=O)O)o1)c1nc2ccccc2[nH]1`, for which the “activation” value was inactive: -24.5%.

In the case of `O=C(Cn1nc2c(cc1=O)CCCC2)Nc1ccc(F)cc1F`, the “activation” value is inactive: 0.954%.

As for `COc1ccc(CCNC(=O)c2c(O)nc3cc(C)ccn3c2=O)cc1OC`, the “activation” value is inactive: -5.61%.

On to `Cc1cc(-c2ccc(C)c(S(=O)(=O)N3CCCC(C)C3)c2)on1` (configuration not stated), for which the “activation” value is inactive: -21%.

Consider `O=C(Cn1c(=O)n(Cc2ccco2)c(=O)c2ccc(C(=O)NC3CCCC3)cc21)Nc1ccc(F)cc1`, for which the “activation” value was inactive: -15.8%.

Regarding `COc1ccc(-n2nc(C(=O)NCCc3ccc(Cl)cc3)c3c4ccccc4n(C)c3c2=O)cc1Cl`, the “activation” value was inactive: -14.6%.

On to `Cc1cc(C)n(CC(=O)Nc2ccc(F)c(F)c2)c(=O)c1C#N`, for which the “activation” value is inactive: -9.43%.

On to `COc1ccc(C)cc1NC(=O)C(=O)NCCc1sc(-c2ccc(Cl)cc2)nc1C`, for which the “activation” value is inactive: -9.84%.

Consider `CCOC(=O)c1c(NC(C)=O)c2c3c(sc2n1Cc1nc(-c2ccc(Cl)cc2)oc1C)CCCC3`, for which the “activation” value was inactive: -1.83%.

Take `CCN(CC)C(=O)C1=C(C)Nc2nc3ccccc3n2C1c1ccc(Br)cc1` (configuration not stated): the “activation” value is inactive: -13.8%.

For `CCc1noc(-c2ccc(NC(C)c3ccccc3)c([N+](=O)[O-])c2)n1` (configuration not stated), the “activation” value is inactive: -8.21%.

As to `CC(=O)c1cccc(NC(=O)CCS(=O)(=O)c2cc3c(cc2C)NC(=O)CO3)c1`, the “activation” value was inactive: -8.94%.

`COc1ccc(N2CCN(C(=O)Cc3coc4ccc(C)cc34)CC2)cc1`: the “activation” value was inactive: -7.16%.

`CCc1ccc(CNC(=O)c2ccc(CSc3nc4ccncc4n3Cc3ccc(OC)cc3)cc2)cc1`: the “activation” value is inactive: -7.24%.

As to `O=S(=O)(Nc1cccc(Cl)c1)c1ccc2[nH]c3c(c2c1)CCCCCC3`, the “activation” value is inactive: -2.79%.

In the case of `CCOc1ccc(C(=O)Nc2c(C(=O)c3ccccc3)oc3ccccc23)cc1`, the “activation” value is inactive: -12.3%.

Turning to `CCC(CC)C(=O)Nc1cc(-c2cn3cccnc3n2)ccc1OC`, the “activation” value was inactive: 10%.

On to `CCOC(=O)c1c(S(=O)(=O)N2CCC(C(=O)N3CCN(c4cccc(C)c4C)CC3)CC2)c(C)n(C)c1C`, for which the “activation” value was inactive: -12.5%.

For `CCOc1ccccc1C1N=C(N)Nc2nc3ccccc3n21` (configuration not stated), the “activation” value is inactive: -12.9%.

As for `Cc1nc(N2CCCC2)c2c(C(=O)Nc3ccc(C)c(Cl)c3)c(C)oc2n1`, the “activation” value was inactive: -22.7%.

Consider `Cc1ccccc1-c1nnc(CN2CCN(c3cc(Cl)ccc3C)CC2)o1`, for which the “activation” value was inactive: -0.656%.

For the compound `CCOC(=O)N1CCC(NC(=O)c2ccc3c(c2)N(Cc2cccc(C)c2)C(=O)c2ccccc2S3(=O)=O)CC1`, the “activation” value is inactive: -4.18%.

`COC(=O)c1c(C)oc2ccc(N(C(=O)c3ccncc3)S(=O)(=O)c3cc(C)c(C)cc3C)cc12`: the “activation” value was inactive: -21.3%.

In the case of `COc1ccc(C(CC(=O)Nc2ccc(C)cn2)N2Cc3ccccc3C2=O)cc1OC` (configuration not stated), the “activation” value was inactive: -21.2%.

As for `Cc1ccc(Nc2cc(C)nc3nc(Cc4ccc(Cl)cc4)nn23)cc1`, the “activation” value is inactive: -13%.

For the compound `CCC(=O)N1CCc2cc(Br)cc(S(=O)(=O)CCC(=O)Nc3cccc(CC)c3)c21`, the “activation” value is inactive: -9.3%.

Take `Cc1ccc(-c2ccc(=O)n(Cc3ccc(F)cc3)n2)cc1`: the “activation” value was inactive: -14.1%.

For the compound `COc1cccc(CNC(=O)Cn2c(=O)oc3cc(S(=O)(=O)N4CCCC4)ccc32)c1`, the “activation” value is inactive: -5.85%.

As for `COc1cccc(CNC(=O)c2nnn(CC(=O)Nc3cc(Cl)ccc3C)c2N)c1`, the “activation” value is inactive: -0.472%.

In the case of `O=S(=O)(c1ccc(F)cc1)N1CCC(Oc2ccc(-n3cnnn3)cc2)CC1`, the “activation” value was inactive: -16.1%.

On to `CCCN(CCC)CCCNC(=O)c1cc2c(=O)oc3ccc(C)cc3c2s1`, for which the “activation” value was inactive: 0.336%.

Turning to `Cc1ccc(CN2CCSc3ccc(C(=O)Nc4ccc(Cl)cc4)cc32)cc1`, the “activation” value was inactive: -11%.

`CC(NC(=O)C1(c2cccs2)CCOCC1)c1ccccc1` (configuration not stated): the “activation” value was inactive: -20.6%.

As to `CCn1cc(C(=O)N2CCN(c3cc(Cl)ccc3C)CC2)c2cc(OC)c(OC)cc2c1=O`, the “activation” value was inactive: -17.2%.

For `CCOc1ccc(CCNC(=O)CCCc2cc(-c3ccc(OCC)cc3)on2)cc1`, the “activation” value was inactive: -4.93%.

Take `Cc1ccc(NC(=O)C2CCCN(c3ncnc4c3nc3n4CCCCC3)C2)cc1F` (configuration not stated): the “activation” value is inactive: -25.3%.

With `Cc1ccc2nc(/C(C#N)=C/c3cccc(Br)c3)[nH]c2c1`, the “activation” value is inactive: -22.7%.

Take `O=C(Cc1csc2ccccc12)NCc1cccc(Br)c1`: the “activation” value is inactive: -9.64%.

In the case of `Cc1ccccc1CN1CCC(CNc2ncnc3onc(-c4ccc(Cl)cc4)c23)CC1`, the “activation” value was inactive: -21.4%.

Take `CN(C)S(=O)(=O)n1cc(/C=C(\NC(=O)c2ccccc2F)C(=O)NCCCn2ccnc2)c2ccccc21`: the “activation” value was inactive: 13.6%.

Take `COc1ccc(Nc2c(-c3ccc(Cl)cc3)nc3cnccn23)cc1OC`: the “activation” value is inactive: -0.756%.

As to `Cc1cc(C)cc(Oc2coc3c(CN4CCN(C)CC4)c(O)ccc3c2=O)c1`, the “activation” value was inactive: -4.06%.

Turning to `O=C(NCc1ccccc1Cl)C1CCN(S(=O)(=O)c2ccc3c(c2)CCCN3C(=O)C2CCC2)CC1`, the “activation” value is inactive: 6.88%.

As to `CCC12CN3CC(C)(CN(C1)C3c1ccc(O)cc1O)C2=O` (configuration not stated), the “activation” value is inactive: -4.3%.

As for `CCOc1ccc(NC(=O)c2c(NC(=O)c3ccco3)sc3c2CCC(C(C)(C)C)C3)cc1` (configuration not stated), the “activation” value was inactive: -8.25%.

Turning to `COc1cc(NS(=O)(=O)c2ccc(NC(=O)C(C)Oc3ccc(Cl)cc3Cl)cc2)nc(OC)n1` (configuration not stated), the “activation” value is inactive: -14.9%.

Consider `O=C(Nc1cccc(C(F)(F)F)c1)C1CCN(c2nnc(-n3cccc3)s2)CC1`, for which the “activation” value is inactive: -10.8%.

As for `Cc1nc2cccnc2n1-c1cccc(C(=O)NCc2ccc(OC(C)C)cc2)c1`, the “activation” value was inactive: 5.06%.

As to `O=C(O)CC(NS(=O)(=O)c1ccc(Cl)s1)c1ccccc1` (configuration not stated), the “activation” value is inactive: -14.7%.

Regarding `COc1cccc(Cn2nnc(C(=O)Nc3cc(C)ccc3C)c2N)c1`, the “activation” value is inactive: -27.3%.

Take `CC(C)CS(=O)(=O)c1oc(-c2ccc(F)cc2)nc1S(=O)(=O)c1ccccc1`: the “activation” value is inactive: -16.6%.

With `CCOc1ccc(NC(=O)N2CCC(C(N)=O)(N3CCCCC3)CC2)cc1`, the “activation” value is inactive: -11%.

Take `COc1ccc(CCNC(=O)c2cnc3ccc(C)cn3c2=O)cc1`: the “activation” value is inactive: -2.02%.

As to `CCCS(=O)(=O)c1c(S(=O)(=O)CCC)c2cc(CC)ccn2c1C(=O)c1ccc(OC)cc1`, the “activation” value is inactive: -11.3%.

For `Cc1ccc2nc(NC(=O)CSc3nccn3Cc3ccc(Cl)cc3)sc2c1`, the “activation” value is inactive: -1.58%.

`O=C(CCc1nc(-c2cccs2)no1)Nc1ccccc1[N+](=O)[O-]`: the “activation” value is inactive: -10.4%.

Consider `O=C(Cn1c(=O)n(Cc2ccccc2)c(=O)c2sc3ccccc3c21)NCc1ccccc1Cl`, for which the “activation” value was inactive: -10.9%.

As for `O=C(NC1CC(=O)N(c2cccc(F)c2)C1)c1ccc(S(=O)(=O)N2CCCC2)cc1` (configuration not stated), the “activation” value is inactive: -11.2%.

As for `Cc1ccn2c(=O)c(C(=O)NCCc3ccccc3)c(O)nc2c1`, the “activation” value was inactive: -16.2%.
